From the antibiotic and cytotoxicity screens of Wong et al. (2023) come the findings set out here.

Molecules are shown by their SMILES. Some of the results follow.

The test system of assay [1] is HSkMC (human skeletal muscle cells). As to the kind of experiment: cytotoxicity call (relative viability < 0.9). The settings on record: 10 µM.
The test system of assay [2] is HepG2. As to the kind of experiment: cytotoxicity call (relative viability < 0.9). To be noted: 10 µM.
The test system of assay [3] is S. aureus RN4220. As to the kind of experiment: growth inhibition call (relative growth <= 0.2). The settings on record: 50 µM.

For the molecule `Cc1noc(C)c1NC(=O)Nc1ccc2c(c1)CC(=O)N([C@H](C)CO)C[C@H](C)[C@H](CN(C)S(C)(=O)=O)O2`, the cytotoxicity call in assay [1] and in assay [2] was “inactive” each time. In assay [3], the growth inhibition call was “inactive”.
`CCCCOC(=O)c1ccc(N)cc1`: the cytotoxicity call in assay [1] and in assay [2] was “inactive” each time. In addition, the growth inhibition call in assay [3] is “inactive”.
`COc1ccc(NC(=O)Nc2ccc3c(c2)[C@H]2C[C@@H](CC(=O)N4CCN(C)CC4)O[C@@H](CO)[C@H]2O3)cc1`: the cytotoxicity call in assay [1] and in assay [2] was “inactive” in each case. In assay [3], the growth inhibition call is “inactive”.
Take `C[C@H]1CN([C@@H](C)CO)C(=O)c2cccc(NC(=O)c3ccc(-c4nccs4)cc3)c2O[C@@H]1CN(C)C(=O)Nc1ccc(F)cc1`: the cytotoxicity call in assay [1] and in assay [2] was “inactive” each time. The growth inhibition call in assay [3] was “inactive”.
Regarding `COc1ccc(NC(=O)Nc2ccc3c(c2)C(=O)N([C@@H](C)CO)C[C@@H](C)[C@@H](CN(C)S(=O)(=O)c2cn(C)cn2)O3)cc1`, the cytotoxicity call in assay [1] and in assay [2] was “inactive” throughout. The growth inhibition call in assay [3] is “inactive”.
For the molecule `COc1ccccc1CNC(=O)C[C@@H]1C[C@@H]2c3cc(NC(=O)Nc4ccc(C(F)(F)F)cc4)ccc3O[C@@H]2[C@@H](CO)O1`, the cytotoxicity call in assay [1] and in assay [2] was “inactive” each time. The growth inhibition call in assay [3] is “inactive”.
As to `Cc1ccc(S(=O)(=O)Nc2ccc3c(c2)C(=O)N([C@H](C)CO)C[C@H](C)[C@H](CN(C)C(=O)Nc2ccc(C(F)(F)F)cc2)O3)cc1`, the cytotoxicity call in assay [1] and in assay [2] was “inactive” in each case. Further, in assay [3], the growth inhibition call was “inactive”.
In the case of `C[C@@H]1CN([C@@H](C)CO)C(=O)Cc2cc(NC(=O)Cn3cnnn3)ccc2O[C@@H]1CN(C)Cc1ccc(Cl)c(Cl)c1`, the cytotoxicity call in assay [1] and in assay [2] was “inactive” in each case. For the same molecule, the growth inhibition call in assay [3] was “inactive”.
In the case of `CS(=O)(=O)Nc1ccc2c(c1)[C@@H]1C[C@H](CC(=O)NCC3CC3)O[C@@H](CO)[C@@H]1O2`, the cytotoxicity call in assay [1] and in assay [2] was “inactive” in each case. Moreover, in assay [3], the growth inhibition call was “inactive”.
Turning to `C[C@@H]1CCCCO[C@H](CN(C)Cc2ccc3c(c2)OCO3)[C@H](C)CN([C@H](C)CO)C(=O)c2cc(NC(=O)Nc3ccc(F)cc3)ccc2O1`, the cytotoxicity call in assay [1] and in assay [2] was “inactive” throughout. Moreover, the growth inhibition call in assay [3] is “inactive”.
With `C[C@H]1CN([C@@H](C)CO)C(=O)Cc2cc(NS(=O)(=O)c3ccc(F)cc3)ccc2O[C@H]1CN(C)Cc1ccncc1`, the cytotoxicity call in assay [1] and in assay [2] was “inactive” in each case. Further, in assay [3], the growth inhibition call is “inactive”.
`Nc1nc(=O)c2nc(CNc3ccc(C(=O)N[C@@H](CCC(=O)O)C(=O)O)cc3)cnc2[nH]1`: the cytotoxicity call in assay [1] and in assay [2] was “inactive” throughout. For the same molecule, the growth inhibition call in assay [3] was “inactive”.
As for `C[C@@H]1CN([C@H](C)CO)C(=O)Cc2cc(NC(=O)CCC(F)(F)F)ccc2O[C@H]1CN(C)S(=O)(=O)c1cn(C)cn1`, the cytotoxicity call in assay [1] and in assay [2] was “inactive” in each case. The growth inhibition call in assay [3] is “inactive”.
With `C[C@H](CO)N1C[C@H](C)[C@@H](CN(C)S(=O)(=O)c2ccccc2)Oc2ncc(-c3ccncc3)cc2C1=O`, the cytotoxicity call in assay [1] and in assay [2] was “inactive” each time. Besides, the growth inhibition call in assay [3] is “inactive”.
Regarding `Cc1noc(C)c1NC(=O)N(C)C[C@H]1Oc2cc(C#CCN(C)C)ccc2S(=O)(=O)N([C@H](C)CO)C[C@H]1C`, the cytotoxicity call in assay [1] and in assay [2] was “inactive” in each case. Further, the growth inhibition call in assay [3] is “inactive”.
For the molecule `C[C@H]1CN([C@@H](C)CO)C(=O)c2cccc(NS(=O)(=O)c3cn(C)cn3)c2O[C@H]1CN(C)CC1CC1`, the cytotoxicity call in assay [1] and in assay [2] was “inactive” each time. Also, the growth inhibition call in assay [3] is “inactive”.
As to `CCCCCCC#C[Si](O[C@H](c1ccccc1)c1cn(Cc2cccc(Cl)c2)nn1)(C(C)C)C(C)C`, the cytotoxicity call in assay [1] and in assay [2] was “inactive” throughout. Also, the growth inhibition call in assay [3] was “inactive”.
Turning to `CC(C)CC#Cc1ccc2c(c1)O[C@@H](CN(C)C(=O)NC1CCCC1)[C@@H](C)CN([C@H](C)CO)S2(=O)=O`, the cytotoxicity call in assay [1] and in assay [2] was “inactive” each time. Also, the growth inhibition call in assay [3] was “inactive”.
Consider `C[C@H]1CN([C@@H](C)CO)C(=O)c2cc(C#CCC3CCCC3)cnc2O[C@H]1CN(C)C(=O)c1cnccn1`, for which the cytotoxicity call in assay [1] and in assay [2] was “inactive” each time. Further, in assay [3], the growth inhibition call was “inactive”.
As for `C[C@H]1CN([C@@H](C)CO)C(=O)c2cc(N(C)C)ccc2O[C@@H]1CN(C)S(C)(=O)=O`, the cytotoxicity call in assay [1] and in assay [2] was “inactive” each time. Also, the growth inhibition call in assay [3] was “inactive”.
Turning to `O=C(C[C@H]1CC[C@H]2[C@@H](COC[C@@H](O)CN2C(=O)c2ccc3c(c2)OCO3)O1)NCCN1CCCC1`, the cytotoxicity call in assay [1] and in assay [2] was “inactive” each time. Besides, the growth inhibition call in assay [3] is “inactive”.
On to `CNC(=O)C(=O)Nc1cc(Cl)ccc1C#N`, for which the cytotoxicity call in assay [1] and in assay [2] was “inactive” each time. Moreover, the growth inhibition call in assay [3] was “inactive”.
With `C[C@H]1CN([C@@H](C)CO)S(=O)(=O)c2ccc(C#Cc3ccccc3F)cc2O[C@H]1CN(C)C(=O)Cc1cccnc1`, the cytotoxicity call in assay [1] and in assay [2] was “inactive” in each case. For the same molecule, the growth inhibition call in assay [3] is “inactive”.
Turning to `O=C/C=C/c1ccc(Cl)cc1`, the cytotoxicity call in assay [1] and in assay [2] was “inactive” in each case. In addition, in assay [3], the growth inhibition call is “inactive”.
Consider `O=C1c2ccccc2[C@@]2(Cc3ccccc3N(CC(F)(F)F)C2=O)[C@H](c2ccc(CO)cc2)N1C1CCCCC1`, for which the cytotoxicity call in assay [1] and in assay [2] was “inactive” throughout. Besides, the growth inhibition call in assay [3] is “inactive”.
For the molecule `C[C@H](CO)N1C[C@H](C)[C@@H](CN(C)S(C)(=O)=O)Oc2c(NC(=O)c3nc4ccccc4s3)cccc2C1=O`, the cytotoxicity call in assay [1] and in assay [2] was “inactive” in each case. In addition, in assay [3], the growth inhibition call is “inactive”.
For `O=C(C[C@H]1C=C[C@H](NS(=O)(=O)c2ccccc2)[C@H](CO)O1)NCc1ccncn1`, the cytotoxicity call in assay [1] and in assay [2] was “inactive” in each case. In assay [3], the growth inhibition call was “inactive”.
As to `C[C@H]1CCCCO[C@H](CN(C)S(=O)(=O)c2ccc(F)cc2)[C@@H](C)CN([C@@H](C)CO)C(=O)c2cc(NC(=O)c3ccccc3)ccc2O1`, the cytotoxicity call in assay [1] was “inactive”. For the same molecule, in assay [2], the cytotoxicity call was “active”. The growth inhibition call in assay [3] was “inactive”.
